Data taken from the supplement of paper PMC4604168 (melanoma cell lines).
Some of the results follow. Single values are uncertain, as repeats are few or missing.

Key:
Experiment in all cases: cell count relative to DMSO control; melanoma cells; higher = more viable cells
Details in all cases: library dose: standard library concentration; 72 h
[1] = system: G361
[2] = system: IPC-298
[3] = system: IST-MEL1
[4] = system: LB2518-MEL
[5] = system: LOXIMVI
[6] = system: MEL-HO
[7] = system: MZ2-MEL
[8] = system: MeWo
[9] = system: RPMI7951
[10] = system: RVH-421
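Further: cells treated in 1,536-well plates, then fixed and DAPI-stained, with nuclei counted from automated high-throughput microscope images.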

SMILES: COc1ccc(C2=N[C@@H](c3ccc(Cl)cc3)[C@@H](c3ccc(Cl)cc3)N2C(=O)N2CCNC(=O)C2)c(OC(C)C)c1 [Nutlin-3] + C[C@]1(c2nc3c(C(N)=O)cccc3[nH]2)CCCN1 [Veliparib] (first compound 0.5 µM, partner dose 7 µM)
- cell count [1]: 70.4%
- cell count [2]: 103%
- cell count [3]: 80.3%
- cell count [4]: 51.5%
- cell count [5]: 30.9%
- cell count [6]: 80.8%
- cell count [7]: 67.5%
- cell count [8]: 84.4%
- cell count [9]: 82.5%
- cell count [10]: 48.2%

SMILES: Cc1cn(-c2cc(NC(=O)c3ccc(C)c(Nc4nccc(-c5cccnc5)n4)c3)cc(C(F)(F)F)c2)cn1 [nilotinib] + CCCCCCCCc1ccc(CCC(N)(CO)CO)cc1 [fingolimod] (first compound 1 µM, partner dose 10 µM)
- cell count [1]: 0.213%
- cell count [2]: 22.6%
- cell count [3]: 4.41%
- cell count [4]: 0.231%
- cell count [5]: 18.4%
- cell count [6]: 0.654%
- cell count [7]: 1.3%
- cell count [8]: 18.9%
- cell count [9]: 0.723%
- cell count [10]: 1.13%

SMILES: COc1ccc(C2=N[C@@H](c3ccc(Cl)cc3)[C@@H](c3ccc(Cl)cc3)N2C(=O)N2CCNC(=O)C2)c(OC(C)C)c1 [Nutlin-3] + CC1(C)NC(=O)N(c2ccc([N+](=O)[O-])c(C(F)(F)F)c2)C1=O [nilutamide] (first compound 0.5 µM, partner dose 5 µM)
- cell count [1]: 62.3%
- cell count [2]: 93.5%
- cell count [3]: 91.3%
- cell count [4]: 58.7%
- cell count [5]: 65.6%
- cell count [6]: 90.1%
- cell count [7]: 104%
- cell count [8]: 80.8%
- cell count [9]: 79.4%
- cell count [10]: 45.5%

SMILES: Cn1c(=O)n(-c2ccc(C(C)(C)C#N)cc2)c2c3cc(-c4cnc5ccccc5c4)ccc3ncc21 + CCCCCCCCCCCC1=C(O)C(=O)C=C(O)C1=O [Embelin] (first compound 0.02 µM, partner dose 6 µM)
- cell count [1]: 62.6%
- cell count [2]: 73.9%
- cell count [3]: 49.8%
- cell count [4]: 94.1%
- cell count [5]: 98.9%
- cell count [6]: 72.7%
- cell count [7]: 72.4%
- cell count [8]: 65%
- cell count [9]: 88.4%
- cell count [10]: 74.6%

SMILES: CC(C)C[C@H](NC(=O)[C@H](Cc1ccccc1)NC(=O)c1cnccn1)B(O)O [Bortezomib] + CC(C)(C)c1cnc(CSc2cnc(NC(=O)C3CCNCC3)s2)o1 [SNS-032] (first compound 0.005 µM, partner dose 0.05 µM)
- cell count [1]: 0.921%
- cell count [2]: 8.03%
- cell count [3]: 15.9%
- cell count [4]: 2.02%
- cell count [5]: 30.4%
- cell count [6]: 33.2%
- cell count [7]: 5.34%
- cell count [8]: 15%
- cell count [9]: 3.91%
- cell count [10]: 7.06%

SMILES: Cc1cc(Nc2cc(N3CCN(C)CC3)nc(/C=C/c3ccccc3)n2)n[nH]1 + Cn1cncc1[C@@](N)(c1ccc(Cl)cc1)c1ccc2c(c1)c(-c1cccc(Cl)c1)cc(=O)n2C [tipifarnib] (first compound 0.2 µM, partner dose 0.05 µM)
- cell count [1]: 59.2%
- cell count [2]: 86.6%
- cell count [3]: 71.7%
- cell count [4]: 55.1%
- cell count [5]: 63.1%
- cell count [6]: 82.9%
- cell count [7]: 79.5%
- cell count [8]: 76.7%
- cell count [9]: 81.3%
- cell count [10]: 75.1%

SMILES: COc1ccc(C2=N[C@@H](c3ccc(Cl)cc3)[C@@H](c3ccc(Cl)cc3)N2C(=O)N2CCNC(=O)C2)c(OC(C)C)c1 [Nutlin-3] + Nc1cccc2c1CN(C1CCC(=O)NC1=O)C2=O [lenalidomide] (first compound 0.5 µM, partner dose 5 µM)
- cell count [1]: 70.1%
- cell count [2]: 107%
- cell count [3]: 103%
- cell count [4]: 73.6%
- cell count [5]: 62.5%
- cell count [6]: 93%
- cell count [7]: 97.5%
- cell count [8]: 108%
- cell count [9]: 137%
- cell count [10]: 60.5%

SMILES: CC(C)C[C@H](NC(=O)[C@H](Cc1ccccc1)NC(=O)c1cnccn1)B(O)O [Bortezomib] + NCC(=O)Nc1ccc(-n2nc(C(F)(F)F)cc2-c2ccc3c(ccc4ccccc43)c2)cc1 [OSU03012] (first compound 0.005 µM, partner dose 5 µM)
- cell count [1]: 0.916%
- cell count [2]: 6.64%
- cell count [3]: 9.11%
- cell count [4]: 0.942%
- cell count [5]: 10.2%
- cell count [6]: 20.8%
- cell count [7]: 1.59%
- cell count [8]: 18.5%
- cell count [9]: 2.56%
- cell count [10]: 6.18%

SMILES: COc1ccc(C2=N[C@@H](c3ccc(Cl)cc3)[C@@H](c3ccc(Cl)cc3)N2C(=O)N2CCNC(=O)C2)c(OC(C)C)c1 [Nutlin-3] + CCN(CC)CCNC(=O)c1c(C)[nH]c(/C=C2\C(=O)Nc3ccc(F)cc32)c1C [sunitinib] (first compound 0.5 µM, partner dose 2 µM)
- cell count [1]: 68.8%
- cell count [2]: 74%
- cell count [3]: 99.8%
- cell count [4]: 56.7%
- cell count [5]: 125%
- cell count [6]: 105%
- cell count [7]: 94.6%
- cell count [8]: 66.3%
- cell count [9]: 102%
- cell count [10]: 69%

SMILES: Cc1cc(Nc2cc(N3CCN(C)CC3)nc(/C=C/c3ccccc3)n2)n[nH]1 + Clc1ccc(Nc2nnc(Cc3ccncc3)c3ccccc23)cc1 [vatalanib] (first compound 0.2 µM, partner dose 10 µM)
- cell count [1]: 57%
- cell count [2]: 67.1%
- cell count [3]: 69.8%
- cell count [4]: 62.2%
- cell count [5]: 63.6%
- cell count [6]: 63.5%
- cell count [7]: 65.1%
- cell count [8]: 73%
- cell count [9]: 50.6%
- cell count [10]: 47.6%

SMILES: Cc1cc(Nc2cc(N3CCN(C)CC3)nc(/C=C/c3ccccc3)n2)n[nH]1 + COc1cc(Nc2ncc(F)c(Nc3ccc4c(n3)NC(=O)C(C)(C)O4)n2)cc(OC)c1OC [Tamatinib] (first compound 0.2 µM, partner dose 2 µM)
- cell count [1]: 80.5%
- cell count [2]: 87.5%
- cell count [3]: 64.4%
- cell count [4]: 64.2%
- cell count [5]: 22.6%
- cell count [6]: 79.6%
- cell count [7]: 76.6%
- cell count [8]: 72.3%
- cell count [9]: 30%
- cell count [10]: 71%

SMILES: CC(C)C[C@H](NC(=O)[C@H](Cc1ccccc1)NC(=O)c1cnccn1)B(O)O [Bortezomib] + C=CCn1c(=O)c2cnc(Nc3ccc(N4CCN(C)CC4)cc3)nc2n1-c1cccc(C(C)(C)O)n1 [MK1775] (first compound 0.005 µM, partner dose 0.1 µM)
- cell count [1]: 1.86%
- cell count [2]: 21.7%
- cell count [3]: 7.43%
- cell count [4]: 5.62%
- cell count [5]: 16.2%
- cell count [6]: 30.2%
- cell count [7]: 8.44%
- cell count [8]: 13.7%
- cell count [9]: 9.28%
- cell count [10]: 5.18%

SMILES: CC(C)C[C@H](NC(=O)[C@H](Cc1ccccc1)NC(=O)c1cnccn1)B(O)O [Bortezomib] + OCCn1cc(-c2cnc3nnn(Cc4ccc5ncccc5c4)c3n2)cn1 [PF04217903] (first compound 0.005 µM, partner dose 5 µM)
- cell count [1]: 0.886%
- cell count [2]: 5.28%
- cell count [3]: 6.86%
- cell count [4]: 1.95%
- cell count [5]: 6.29%
- cell count [6]: 20.8%
- cell count [7]: 3.61%
- cell count [8]: 12.1%
- cell count [9]: 3.11%
- cell count [10]: 4.83%

SMILES: Cc1cn(-c2cc(NC(=O)c3ccc(C)c(Nc4nccc(-c5cccnc5)n4)c3)cc(C(F)(F)F)c2)cn1 [nilotinib] + Cn1nnc2c(C(N)=O)ncn2c1=O [temozolomide] (first compound 1 µM, partner dose 10 µM)
- cell count [1]: 7.9%
- cell count [2]: 96.5%
- cell count [3]: 81.3%
- cell count [4]: 70.9%
- cell count [5]: 97.8%
- cell count [6]: 92%
- cell count [7]: 91%
- cell count [8]: 98.4%
- cell count [9]: 75.4%
- cell count [10]: 86.6%

SMILES: COc1ccc(C2=N[C@@H](c3ccc(Cl)cc3)[C@@H](c3ccc(Cl)cc3)N2C(=O)N2CCNC(=O)C2)c(OC(C)C)c1 [Nutlin-3] + Cn1cncc1[C@@](N)(c1ccc(Cl)cc1)c1ccc2c(c1)c(-c1cccc(Cl)c1)cc(=O)n2C [tipifarnib] (first compound 0.5 µM, partner dose 0.05 µM)
- cell count [1]: 63.7%
- cell count [2]: 90.1%
- cell count [3]: 85.7%
- cell count [4]: 51.3%
- cell count [5]: 57.9%
- cell count [6]: 98.9%
- cell count [7]: 99.4%
- cell count [8]: 91.3%
- cell count [9]: 65.2%
- cell count [10]: 59.7%

SMILES: Cn1c(=O)n(-c2ccc(C(C)(C)C#N)cc2)c2c3cc(-c4cnc5ccccc5c4)ccc3ncc21 + COc1ccc2c(c1)CCC1C2CCC2(C)C(NCCCCCCN3C(=O)C=CC3=O)CCC12 [U73122] (first compound 0.02 µM, partner dose 2 µM)
- cell count [1]: 72.5%
- cell count [2]: 98.1%
- cell count [3]: 85.9%
- cell count [4]: 107%
- cell count [5]: 88.5%
- cell count [6]: 78.8%
- cell count [7]: 100%
- cell count [8]: 53.6%
- cell count [9]: 21.3%
- cell count [10]: 95%

SMILES: COc1ccc(C2=N[C@@H](c3ccc(Cl)cc3)[C@@H](c3ccc(Cl)cc3)N2C(=O)N2CCNC(=O)C2)c(OC(C)C)c1 [Nutlin-3] + COC(=O)c1sccc1S(=O)(=O)Nc1ccc(Nc2ccccc2)cc1OC [GSK0660] (first compound 0.5 µM, partner dose 5 µM)
- cell count [1]: 72.7%
- cell count [2]: 94%
- cell count [3]: 104%
- cell count [4]: 81.9%
- cell count [5]: 74.6%
- cell count [6]: 99.1%
- cell count [7]: 88.7%
- cell count [8]: 90.7%
- cell count [9]: 86.2%
- cell count [10]: 50.3%

SMILES: Cc1cc(Nc2cc(N3CCN(C)CC3)nc(/C=C/c3ccccc3)n2)n[nH]1 + NC(=O)Nc1cc(-c2cccc(F)c2)sc1C(=O)N[C@H]1CCCNC1 [AZD7762] (first compound 0.2 µM, partner dose 0.1 µM)
- cell count [1]: 75.4%
- cell count [2]: 89.4%
- cell count [3]: 93.2%
- cell count [4]: 69.6%
- cell count [5]: 68.2%
- cell count [6]: 85.3%
- cell count [7]: 112%
- cell count [8]: 65.8%
- cell count [9]: 31.9%
- cell count [10]: 101%

SMILES: Cc1cc(Nc2cc(N3CCN(C)CC3)nc(/C=C/c3ccccc3)n2)n[nH]1 + CC(C)C[C@H](NC(=O)[C@H](Cc1ccccc1)NC(=O)c1cnccn1)B(O)O [Bortezomib] (first compound 0.2 µM, partner dose 0.005 µM)
- cell count [1]: 1.22%
- cell count [2]: 5.9%
- cell count [3]: 10.6%
- cell count [4]: 4.35%
- cell count [5]: 36.1%
- cell count [6]: 23%
- cell count [7]: 4.97%
- cell count [8]: 13%
- cell count [9]: 5.74%
- cell count [10]: 5.8%

SMILES: CC(C)C[C@H](NC(=O)[C@H](Cc1ccccc1)NC(=O)c1cnccn1)B(O)O [Bortezomib] + Cc1cc([N+](=O)[O-])ccc1NS(=O)(=O)c1cc(Cl)ccc1Cl [FH535] (first compound 0.005 µM, partner dose 5 µM)
- cell count [1]: 0.338%
- cell count [2]: 13.2%
- cell count [3]: 13.6%
- cell count [4]: 2.15%
- cell count [5]: 48.9%
- cell count [6]: 29.4%
- cell count [7]: 7.27%
- cell count [8]: 8.76%
- cell count [9]: 11.3%
- cell count [10]: 26.9%

SMILES: Cc1cc(Nc2cc(N3CCN(C)CC3)nc(/C=C/c3ccccc3)n2)n[nH]1 + CS(=O)(=O)CCNCc1ccc(-c2ccc3ncnc(Nc4ccc(OCc5cccc(F)c5)c(Cl)c4)c3c2)o1 [lapatinib] (first compound 0.2 µM, partner dose 4 µM)
- cell count [1]: 67.1%
- cell count [2]: 62.3%
- cell count [3]: 88.6%
- cell count [4]: 63.4%
- cell count [5]: 56.6%
- cell count [6]: 70.5%
- cell count [7]: 54.2%
- cell count [8]: 62.3%
- cell count [9]: 53.2%
- cell count [10]: 61.9%
